In article PMC6919601, “Identification of Plasmodium dipeptidyl aminopeptidase allosteric inhibitors by high throughput screening” (PLoS ONE, 2019):
In all, about 110,000 compounds went through this assay and about 230 (0.21%) showed an effect of 50% or more. The list shows a part of the results.

These compounds were tested against DPAP1 (Plasmodium falciparum, UniProt Q8IIJ9) (assay: primary screen, percent inhibition; read by cleavage of a fluorogenic dipeptide substrate; higher = more effect of the substance).
Parameters: species or system P. falciparum D10 trophozoite lysates; single well
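Further: 30 min substrate incubation versus DMSO and 10 µM JCP410 controls.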

Chain of DPAP1 (Q8IIJ9 whole entry, looked up): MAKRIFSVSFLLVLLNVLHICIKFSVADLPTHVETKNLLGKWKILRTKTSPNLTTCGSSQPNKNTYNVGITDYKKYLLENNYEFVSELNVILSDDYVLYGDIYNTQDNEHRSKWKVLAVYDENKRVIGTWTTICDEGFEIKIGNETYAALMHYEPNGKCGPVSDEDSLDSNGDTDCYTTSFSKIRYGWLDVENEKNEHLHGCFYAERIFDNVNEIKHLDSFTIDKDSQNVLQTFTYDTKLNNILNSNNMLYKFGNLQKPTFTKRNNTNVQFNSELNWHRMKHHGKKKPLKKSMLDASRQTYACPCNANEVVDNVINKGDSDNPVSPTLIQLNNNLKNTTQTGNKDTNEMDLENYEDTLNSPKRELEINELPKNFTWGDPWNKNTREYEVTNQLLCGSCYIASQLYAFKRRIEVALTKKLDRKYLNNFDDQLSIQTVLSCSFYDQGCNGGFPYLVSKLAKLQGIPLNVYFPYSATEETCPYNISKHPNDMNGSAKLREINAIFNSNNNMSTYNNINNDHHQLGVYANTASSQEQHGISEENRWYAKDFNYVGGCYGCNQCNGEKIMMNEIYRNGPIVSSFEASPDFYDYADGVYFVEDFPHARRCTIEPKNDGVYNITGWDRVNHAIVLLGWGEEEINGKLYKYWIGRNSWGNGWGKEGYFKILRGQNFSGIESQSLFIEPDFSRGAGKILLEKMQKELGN

SMILES	% Inhibition @ 10 uM
CC(C)Cc1cc(C(=O)O)[nH]n1	0.275%
COc1ccc(C2CC3=NC(C)=C(C#N)C(c4ccc(N(C)C)cc4)C3=C(O)C2)cc1 (centres unmarked)	-1.66%
Cc1ccc(CCNC(=O)C2CCC(=O)N2CCc2ccccc2)cc1 (centres unmarked)	3.24%
COc1ccc(NC(=O)c2ccc3c(c2)C(=O)N(c2ccccc2OC)C3=O)cc1	-8.01%
CC(=O)c1[nH]c2ccccc2c1C(=O)O	-2.14%
N#CC1=C(/N=C/c2ccccc2O)CCC1	4.41%
Cc1ccc(-n2nc3c(c2NC(=O)COc2ccc(Cl)cc2Cl)CS(=O)(=O)C3)c(C)c1	4.23%
CCc1ccc(CNC(=O)CCC(=O)N2Cc3ccccc3Oc3ncccc32)cc1	-8.07%
Cc1ccccc1OCCn1cccc1/C=C1\C(=N)N2N=C(N3CCCC3)SC2=NC1=O	-3.44%
Cc1cc(C)n(S(=O)(=O)c2ccc(N)cc2)c(=O)n1	1.5%
COc1ccc(C(=O)N2CCN(Cc3ccncc3)CC2)cc1OC	-4.7%
O=S(=O)(Cc1ccccc1)N1CCC(Oc2cccc(C(F)(F)F)c2)CC1	2.29%
Cc1ccc(-n2ncc(C(=O)NCCc3c[nH]c4ccccc34)c2-n2cccc2)cc1	-3.03%
O=C(c1ccco1)N1CCN(c2nc3c(S(=O)(=O)c4ccccc4)nnn3c3ccccc23)CC1	-2.68%
CC(C)CC(=O)Nc1c2c(nn1-c1cccc(Cl)c1)CS(=O)(=O)C2	-0.657%
COc1ccc(C2C3=C(O)CCCC3=NC(C)=C2C(=O)Nc2ccccc2C)c(OC)c1 (centres unmarked)	0.746%
COc1ccc(-n2nnnc2C2CCN(S(=O)(=O)c3c(C)cc(C)cc3C)CC2)cc1	1.67%
CC1CCN(S(=O)(=O)c2ccc(NC(=O)COc3ccc(Br)cc3)cc2)CC1	-1.61%
Cc1ccc2cnn(CCCC(=O)NC3CCCCCC3)c2c1	-8.57%
O=C(CSC1=NCCS1)N1CCN(c2ccccc2)CC1	-5.63%
CSC1=NSC2=NC(=O)/C(=C\c3ccc(C(C)C)cc3)C(=N)N12	1.83%
O=C(COc1ccccc1)Nc1ccc(S(=O)(=O)N2CCOCC2)cc1	0.727%
CCO/C(O)=C1/C(C)=NC2=C(C(=O)CCC2)C1c1ccc(OCC)cc1 (centres unmarked)	-8.79%
Cc1ccc(-c2c(CN3CCOCC3)csc2C)cc1	4.65%
Cc1ccccc1Cn1nc(C)c(NC(=O)c2c(C)nn(C(F)F)c2C)c1C	-0.545%
O=C(C1CCCN(c2ncnc3onc(-c4ccc(F)cc4)c23)C1)N1CCc2ccccc2C1 (centres unmarked)	-4.44%

SMILES	% Inhibition @ 10 uM
CCC(C(=O)NCCc1ccccc1OC)n1nc(C)c2sc3ccccc3c2c1=O (centres unmarked)	4.79%
CCOc1ccc(C(=O)NC2CC2)cc1	1.43%
Cc1ccccc1CSc1nc(=O)c2c(n1C)NC(=O)CC2c1ccc(F)cc1F (centres unmarked)	2.25%
CCN(C(=O)c1cc2c(=O)n3ccccc3nc2n1C)c1ccccc1	5.17%
COc1cc(CC(C)N2CCN(C(C)=O)CC2)ccc1O (centres unmarked)	0.273%
O=S(=O)(Nc1cccc(C(F)(F)F)c1)c1ccccc1Cl	-5.23%
Cc1ccc(Cn2nnc3c(=O)n(C/C=C/c4ccccc4)cnc32)cc1	4.41%
CC(NC(=O)c1noc2c1CCc1ccccc1-2)c1ccccc1 (centres unmarked)	-5.09%
O=C(CSc1c(O)nc2ccc(Cl)cc2c1-c1ccccc1)NCc1ccco1	0.561%
Brc1ccc(OCc2nn3c(-c4ccncc4)nnc3s2)cc1	37.3%
N#Cc1ccc(NC(=O)CSc2ccccn2)cc1	3.72%
Cc1ccc2c(c1)C(=O)N(c1cccc(C(=O)O)c1)C2=O	4.05%
Cc1ccc(NS(=O)(=O)c2ccc(F)cc2)cc1	0.526%
CCN1CCC(N(CCO)Cc2ccccc2)CC1	-4.75%
N#CCNC(=O)[C@H](Cc1ccccc1)NC(=O)c1cc(-c2ccccc2)c(-c2ccccc2)s1	15.8%
COc1ccccc1C(=O)Nc1cc(C(F)(F)F)ccc1Br	-2.42%
CCCN1C(=O)c2[nH]nc(-c3ccc(F)cc3)c2C1c1cccnc1 (centres unmarked)	2.29%
CC1(C)CC(=O)C(C(C2=C(O)CC(C)(C)CC2=O)c2c3ccccc3cc3ccccc23)C(=O)C1 (centres unmarked)	1.7%
Cc1cccc(CN2CCN(CC(=O)O)C2=O)c1	1.91%
CC(C)C[C@@H](NC(=O)c1ccc(N2CCN(C)CC2)cc1)C(=O)NCC#N	0.173%
O[C@H]1CC[C@H](NC2CCN(CCc3ccccc3)CC2)CC1	3.18%
Cc1ccc(N2CC(C(=O)Nc3cccc(Cl)c3)CC2=O)cc1C (centres unmarked)	2.25%
N#CC1=C(SCC(N)=O)NC(=O)CC1c1cccc(Oc2ccccc2)c1 (centres unmarked)	-1.64%
CC(=O)c1sc(NC(=O)COc2ccc(Br)cc2)nc1C	-0.425%
COc1cccc(CCN2CCC(CNS(=O)(=O)c3cc(-c4cc(C)no4)ccc3C)CC2)c1	-3.98%
Cc1ccccc1NC(=O)CN1C(=O)S/C(=C/c2cccs2)C1=O	3.53%

SMILES	% Inhibition @ 10 uM
CC1=C(CCN2CCN(c3ccc(Cl)cc3)CC2)C(C)(C)CCC1	-1.41%
COc1ccc(/C=C2\C(=O)NC(=O)N(C)C2=O)c(OC)c1OC	1%
Cc1ccc(/C(N)=N/OC(=O)COc2ccc(C(C)C)cc2)cc1	1.75%
CC(C)(C)N1CSC(COc2cccc3ccccc23)C1 (centres unmarked)	-3.67%
CCN(CC)S(=O)(=O)c1cnccc1N1CCN(C(C)C)CC1	-10.2%
NC(=O)c1c(NC(=O)C2CCCN(C(=O)c3ccc4c(c3)OCCO4)C2)sc2c1CCCC2 (centres unmarked)	5.43%
N#CC1=C(N)N(c2ccc(Br)cc2F)C2=C(C(=O)CCC2)C1c1ccsc1 (centres unmarked)	-9.55%
Cc1cnc(NC(=O)c2c(O)c3ccccc3n(CC(C)C)c2=O)s1	-8.49%
CCOC(=O)C1CCCN(C2C3CC4CC(C3)CC2C4)C1 (centres unmarked)	-4.75%
Cc1cc(C(=O)NCCCc2ccccc2)c2c(C)nn(-c3cccc(F)c3)c2n1	2.52%
CC1Cc2c([nH]c3ccccc23)C(=O)N1 (centres unmarked)	0.989%
C=CCOc1c(Cl)cc(CNC2CCCCC2)cc1OC	4.42%
Cc1c(C(=O)N2CCC3(CC2)OCCO3)sc2nc(-c3ccccc3)cn12	-3.7%
CCCCNc1cc(=O)n(C)c(=O)n1C	9.1%
Cc1cc(C)nc(NC(=O)OCc2ccccc2)n1	1.08%
Cc1ccc(OCC(=O)Nc2ccc3c(c2)OCO3)c(C)c1	0.145%
CC1CCc2c(sc(NC(=O)c3cccs3)c2C(=O)N2CCCCC2)C1 (centres unmarked)	-1.5%
Cc1ccc(-n2nnnc2SCCOc2ccc(C)c(C)c2)cc1	0.484%
COc1ccccc1N1CCN(CCCN2CC(=O)N3CCCCC3C2=O)CC1 (centres unmarked)	1.39%
CN1C(=O)c2ccccc2C(C(=O)NCCc2ccsc2)C1c1cccs1 (centres unmarked)	-2.37%
O=C1CC(c2ccccc2C(F)(F)F)c2cc3c(cc2N1)OCO3 (centres unmarked)	-3.09%
COc1ccc2c(c1)c(C#N)c1n2CCN=C1N(C)C	-3.22%
Cc1ccc(CS(=O)(=O)CCC(=O)NCc2ccccc2Cl)cc1	8.32%
O=C1C2=C(N=C3C(=C(O)c4ccccc43)C23C(=O)Nc2ccccc23)c2ccccc21 (centres unmarked)	3.79%
Cc1cc(C)n2nc(SCC(=O)N3CCC4(CC3)OCCO4)nc2n1	0.955%
Cc1c(/N=C(\S)NCCc2ccccc2)c(=O)n(-c2ccccc2)n1C	3.15%

SMILES	% Inhibition @ 10 uM
CC(Cc1ccc(F)cc1)N[C@H]1CC[C@H](O)CC1 (some centres unmarked)	0.273%
CC1COC(c2cccn2Cc2ccc(F)cc2Cl)=N1 (centres unmarked)	-3.39%
Cn1ccc(C#CCN2CCOCC2)n1	-4.26%
O=C(O)c1ccc2c(c1)C(=O)N(c1cccc(/C=C/C(=O)c3cccc(N4C(=O)c5ccc(C(=O)O)cc5C4=O)c3)c1)C2=O	3.25%
CC(C)(C)NS(=O)(=O)Nc1ccccc1[N+](=O)[O-]	-4.96%
CCOc1ccc(Cc2c(C)nc3c(C)cccc3c2Cl)cc1	-5.62%
COCC1=Nc2ncnn2C(c2cc(Br)ccc2OC)/C1=C(/O)OC (centres unmarked)	0.0842%
CC12CN3CC(C)(CN(C1)C3c1ccccn1)C2O (centres unmarked)	1.67%
O=C1OCC/C1=C\c1ccc(O)cc1	-0.0217%
O=C(CSc1ccccn1)Nc1ccc(F)c(F)c1	-4.48%
CN(C)CCCO/N=C(\c1ccccc1)c1ccncc1	-2.42%
O=c1c(O)c(-c2cccc(Cl)c2Cl)oc2ccccc12	-3.77%
COc1cccc(OC)c1C(=O)N1CCCCC1	1.41%
Cc1cccc(OCC(=O)Nc2nc(-c3ccc(S(=O)(=O)N4CCOCC4)cc3)cs2)c1	6.15%
Cc1cccc2c1-c1sc(C(=O)NCCN3CCCCC3C)cc1CO2 (centres unmarked)	-3.08%
CCC1CCC(NCc2cccc(OC)c2OC)CC1 (centres unmarked)	-1.78%
Cc1ccc(-n2ncc3c(N4CCN(C)CC4)ncnc32)c(C)c1	3.36%
CCCCc1c(C)nc2ccc(C(=O)O)cc2c1S	-3.77%
CC(=O)Nc1ccc2c(c1)N(C(C)=O)c1ccccc1CC2	-4.54%
Cc1cc(NC(=O)c2cncc(Br)c2)no1	8.75%
COc1cc(C2c3c(oc4cc(C)cc(C)c4c3=O)C(=O)N2Cc2ccco2)ccc1O (centres unmarked)	4.83%
N#C/C(=C/c1ccc(-c2ccc(Br)cc2)o1)C(=O)O	-1.29%
OCCN1CCN(CCCC(c2ccc(F)cc2)c2ccc(F)cc2)CC1	1.19%
